Test results taken from PMC12040169 (PLOS Biology, 2025).
The other results are listed elsewhere or left out.

These compounds were tested on T1, C. trachomatis L2/434/Bu expressing GFP (CTL2-GFP). Conditions: total inclusion area; 28.5 h, 10 µM; inhibitor.
T1 construct: L2/434/Bu GFP intracellular growth in HeLa cells
Parameters: species or system HeLa; C. trachomatis total inclusion area by high-content imaging, normalised to DMSO
Summary of the method: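 Post-fluorescence-read fixation, DNA staining with Hoechst and high-content imaging; GFP inclusion area and number per well, and nuclei counts, used as proxies for bacterial growth and host viability.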

| Structure (SMILES) | % of control remaining |
| --- | --- |
| CC(=O)Nc1ccc(-c2cc(-c3ccc(NC(C)=O)cc3)nc(-c3ccc([N+](=O)[O-])cc3)n2)cc1 [CBK261273] | 94.8141 |
| CCCN(Cc1cccs1)C1Cc2cc(OC)c(OC)cc2C1 [CBK017567C] | 52.5695 |
| CS(=O)(=O)c1cccc(-c2cnc(NCCOc3ccccc3)c(C(=O)NCCc3ccccc3)c2)c1 [CBK076201] | 128.033 |
| Cc1ccc(NS(=O)(=O)N(C)C)c(C)c1 [CBK005246] | 85.5423 |
| Nc1nc(=O)c2cnc3c(F)cccc3c2s1 [CBK291249] | 136.401 |
| CCOC(=O)c1c(CN(C)C)n(-c2ccccc2)c2cc(Br)c(OC)cc12 [CBK115360] | 65.157 |
| O=C/C(=C\Nc1ccc(S(=O)(=O)N2CCCCC2)cc1)c1nc2ccccc2o1 [CBK262281] | 97.1734 |
| Cn1ccc(C2CCCCCN2C(=O)c2cc(C3CC3)on2)n1 (centres unmarked) [CBK283050] | 97.3108 |
| O=C(CCCc1c[nH]c2ccccc12)Nc1cccc(C(=O)O)c1 [CBK287175] | 89.8057 |
| Cc1nn(CCC#N)c(C)c1[C@@H]1C=C[C@@H](NC(=O)Nc2ccccc2)C1 [CBK289173] | 112.362 |
| Cc1nc(Nc2c(Cl)cc(S(N)(=O)=O)cc2Cl)sc1C(=O)Nc1ccccc1 [CBK265335] | 79.3256 |
| CC(C)Cn1c(=O)[nH]c2ncc(-c3cccc4ccccc34)nc21 [CBK064194] | 152.188 |
| CCN(C(=O)c1cnccn1)C(CC1CCCCC1)c1ccccc1 (centres unmarked) [CBK061638] | 18.9625 |
| CC1CCc2n[nH]c(C(=O)NC3CN4CCC3CC4)c2C1 (centres unmarked) [CBK283193] | 84.5091 |
| CCOC(=O)COc1ccc(/C=C2/SC(=S)N(c3cccc(C(=O)O)c3)C2=O)cc1 [CBK265632] | 108.426 |
| COCCCn1c(=O)[nH]c2ncc(-c3cccc(OC)c3)nc21 [CBK064519] | 75.2552 |
| Cc1noc(C)c1C(=O)N(C)CC(=O)Nc1ccc(Cl)c(C(F)(F)F)c1 [CBK295363] | 113.389 |
| N#Cc1sc(N)c2ccc(-c3ccncc3)nc12 [CBK019761] | 99.8248 |
| COC(=O)c1ccsc1NC(=O)c1cc(-c2ccc(C)o2)nc2ccc(Br)cc12 [CBK267752] | 113.819 |
| CN1CCC(N(C)C(=O)c2ccc3nccnc3c2)CC1 [CBK269096] | 100.232 |
| O=C(Nc1ccc2oc(-c3cccnc3)nc2c1)c1cc([N+](=O)[O-])ccc1N1CCOCC1 [CBK268674] | 128.684 |
| Cc1ccc(/C=C/C(=O)O)cc1S(=O)(=O)NCC1CCCO1 (centres unmarked) [CBK287267] | 104.332 |
| COc1ccc(Cl)cc1NC(=O)CN(C1CCCCC1)S(=O)(=O)c1ccccc1 [CBK265159] | 80.8728 |
| COc1ccc(C(C)C)cc1-c1cnc(N)c(NC2CCCCC2)n1 [CBK063618] | 97.3548 |
| CN(C(=O)CN1CCN(c2cc(-c3ccsc3)ncn2)CC1)c1ccccc1 [CBK091129] | 149.177 |

| Structure (SMILES) | % of control remaining |
| --- | --- |
| CN(C)CCN1C(=O)C(O)=C(C(=O)c2ccc(S(=O)(=O)N3CCOCC3)cc2)C1c1ccccc1 (centres unmarked) [CBK264668] | 107.879 |
| C=CCn1c(SCC(=O)N2CCN(c3ccccc3)CC2)nnc1-c1ccc(N)cc1 [CBK267956] | 102.619 |
| CN1CCN(c2snnc2CO)CC1 [CBK025626] | 92.0507 |
| CCC(C)(C)c1ccc(S(=O)(=O)N2CCN(Cc3cccc4cccnc34)CC2)cc1 [CBK062830] | 70.3935 |
| CC(C)CCNCc1ccc(-c2cn(CC(=O)NCc3ccc(C(F)(F)F)cc3)cn2)cc1 [CBK165976] | 35.9951 |
| Fc1cc(Cl)ccc1NC(=S)NCCN1CCOCC1 [CBK268441] | 106.207 |
| COc1cc(C=C2C(=O)OC(C)(C(C)(C)C)OC2=O)cc(Br)c1OC (centres unmarked) [CBK028893] | 83.4661 |
| COC(=O)CNC(=O)c1cc(-c2ccc(C)s2)nc2c1cnn2C(C)C [CBK305040] | 66.716 |
| CCn1c(=O)n(CC(=O)N2C(C)CCCC2C)c2cccnc21 (centres unmarked) [CBK283825] | 111.188 |
| CC(C)Nc1cncc(OCc2ccc(Cl)c(Cl)c2)n1 [CBK115653] | 93.3415 |
| O=C(N/N=C/c1cc(Br)c(Br)o1)c1cccc(F)c1 [CBK261688] | 42.0608 |
| c1coc(CNc2cncc(-c3cccc4ccccc34)n2)c1 [CBK065573] | 78.9159 |
| O=C(N[C@@H]1CNCCC[C@H]1O)c1ccc(OCCN2CCCC2)cc1 [CBK289070] | 130.253 |
| COc1ccc([C@]23CN(C)C[C@H]2CCN(C(=O)Nc2ccc(Cl)c(F)c2)C3)cc1OC [CBK081140T] | 62.8295 |
| Cc1cccc(-c2csc3c(=O)[nH]c(N4CCC(C(=O)NCCc5cccnc5)CC4)nc23)c1 [CBK215627] | 110.317 |
| C[C@@H](Nc1nc(-c2ccco2)cnc1N)c1ccccc1 [CBK063737] | 152.348 |
| CC(=O)c1ccc(NC(=O)NC[C@H]2C[C@@H]3CC[N@]2C[C@@H]3CN2CCCCC2)cc1 [CBK288766] | 83.7425 |
| COc1ccc(OCc2ncc(C(C)(C)C)o2)c(C(C)=O)c1 [CBK305079] | 67.8884 |
| CCN(CC)CCn1c(=N)n(CC(=O)c2cccs2)c2ccccc21 [CBK278240B] | 95.1115 |
| CC(NS(=O)(=O)c1cccs1)c1ccccc1 (centres unmarked) [CBK043601] | 96.5719 |
| CC(=O)c1sc(NC(=O)c2ccc(N3C(=O)CCC3=O)cc2)nc1C [CBK287334] | 113.064 |
| O=C(NCc1cccs1)c1ccc2nc[nH]c2c1 [CBK153320] | 114.511 |
| Cc1[nH]c2ccccc2c1Cc1n[nH]c(=S)n1Cc1ccccc1 [CBK266985] | 67.6948 |
| CC(=O)c1ccc(-c2cc(F)cc3c2OC(CN)C3)s1 (centres unmarked) [CBK307513] | 31.2704 |
| CC(=O)N1CCC2(CCCC[C@H]3CN(C(C)C)CC[C@@H]3NC(=O)CNC2=O)CC1 [CBK292133] | 98.1515 |
